{"source": "PubChem BioAssay AID686970", "about": "(National Center for Advancing Translational Sciences (NCATS), 2013)", "note": "About 6,000 (1.7%) of roughly 360,000 compounds were called active. This list was built around the results that the source calls inconclusive (neither active nor inactive); the mix of calls is not that of the screen. Calls follow the shape of the dose curve; as a rule, active = well fitted cell-killing curve with a large enough effect; inconclusive = small, poorly fitted or top-dose-only effect, or effect the other way; inactive = flat fitted curve, though single readings scatter. Potencies of inconclusive entries are left out as doubtful fits. Potency is read from the fitted curve at half-maximal effect; tags tell the direction and shape of the fitted curve."}
{"assay": "qHTS for induction of synthetic lethality in tumor cells producing 2HG: qHTS for the HT-1080-NT fibrosarcoma cell line;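 also: NT is the 2HG producing partner of a matched IDH1 knockdown line; nearly all actives have a fitted effect of over 55% in size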;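 as to activity, negative = less viability: 0% = DMSO-treated cells and -100% = media-only wells without cells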", "details": "HT-1080-NT fibrosarcoma viability, CellTiter-Glo ATP luminescence, 48 h; activity, negative = less viability: at 46.1 µM (top of the series) unless noted", "in_short": "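HT-1080-NT; 750 cells/well; 5% FBS RPMI; 48 h compound, 37 degrees C; CellTiter-Glo luminescence; curve fitting and curve-class assignment.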"}
{"smiles": "O=C(Nc1cccc(-c2nc3ccccc3[nH]2)c1)c1cccc(NC(=O)c2ccco2)c1", "Potency": "inconclusive [cytotoxic, single point]"}
{"smiles": "CCC1CCCCN1CCCNC(=O)c1ccc2c(c1)c(C)c(C)n2C", "note": "(centres undefined)", "Potency": "inconclusive [cytotoxic, single point]"}
{"smiles": "CCOc1ccc(N(Cc2ccc(C(=O)O)cc2)S(=O)(=O)c2ccc(C)cc2)cc1", "Potency": "inconclusive [cytotoxic, partial curve]"}
{"smiles": "CCOC(=O)C1=C(C)NC(C)=C(C(=O)OCC)C1c1ccc(OC)cc1", "Potency": "inactive"}
{"smiles": "COC(=O)c1sccc1S(=O)(=O)Nc1ccc(C(O)(C(F)(F)F)C(F)(F)F)cc1", "Potency": "inconclusive [cytotoxic, single point]"}
{"smiles": "Cc1cccc(Nc2nc(N)nc(-c3oc4ccccc4c3C)n2)c1", "Potency": "inconclusive [cytotoxic, partial curve, poor fit]"}
{"smiles": "Cc1[nH]n(C(N)=S)c(=O)c1N=Nc1ccc([N+](=O)[O-])cc1Cl", "Potency": "inconclusive [cytotoxic, single point]"}
{"smiles": "COc1cccc(-c2noc(Cn3nc(C)c([N+](=O)[O-])c3C)n2)c1", "Potency": "inactive"}
{"smiles": "O=C(c1ccc(Cl)c(Cl)c1)N(Cc1ccco1)c1ccc(O)cc1", "Potency": "inconclusive [cytotoxic, single point]"}
{"smiles": "COc1cc(S(=O)(=O)N2CCCN(C)CC2)ccc1NC(C)=O", "Potency": "inactive"}
{"smiles": "CCOC(=O)N1CCN(Cc2cc(Cl)c3cccnc3c2O)CC1", "Potency": "active: 5.8 µM"}
{"smiles": "Cc1ccc(S(=O)(=O)N2C[C@H]3n4c(=O)ccc(=O)n4C[C@H](OC(=O)NCc4ccco4)[C@@]3(O)C2)cc1", "Potency": "inactive"}
{"smiles": "CCCCc1ccc(NC(=O)c2ccc(NS(C)(=O)=O)cc2)cc1", "Potency": "inactive"}
{"smiles": "C=C1[C@@H](O)[C@H](Cc2ccccc2)N(Cc2ccccc2Br)S1(=O)=O", "Potency": "inconclusive [cytotoxic, single point]"}
{"smiles": "CC(C)CN(CC(C)C)CC(O)COc1ccccc1Br", "note": "(centres undefined)", "Potency": "inconclusive [cytotoxic, single point]"}
{"smiles": "COc1ccc2c(c1)N(C[C@H](C)CN(C)C)c1ccccc1S2", "Potency": "active: 23.1 µM"}
{"smiles": "CCCN1CCN(CCCNC(=O)c2ccc3c(Cl)c4c(nc3c2)CCCC4)CC1", "Potency": "inconclusive [cytotoxic, partial curve]"}
{"smiles": "COc1ccc(-c2csc(Nc3ccccc3)n2)cc1", "Potency": "inconclusive [cytotoxic, single point]"}
{"smiles": "CC(=O)c1cccc(NC(=O)c2ccc(N(Cc3ccccc3C)S(C)(=O)=O)cc2)c1", "Potency": "inactive"}
{"smiles": "CCOc1ccc(C(=O)Nc2cc(-c3nc4ccccc4[nH]3)ccc2Cl)cc1[N+](=O)[O-]", "Potency": "inconclusive [cytotoxic, partial curve]"}
{"smiles": "O=C(ONC1=NCCCCC1)c1c(F)cccc1F", "Potency": "inactive"}
{"smiles": "COc1ccccc1C(=O)N/C(=C\\c1cn(S(=O)(=O)N(C)C)c2ccccc12)C(=O)NCCCN1CCOCC1", "Potency": "inconclusive [cytotoxic, single point]"}
{"smiles": "COc1ccc(N(C(=O)c2ccc(Br)o2)C2C=CS(=O)(=O)C2)cc1", "note": "(centres undefined)", "Potency": "inactive"}
{"smiles": "CC1(NC(=O)c2cc(S(=O)(=O)N3CCCCC3)ccc2Cl)CCS(=O)(=O)C1", "note": "(centres undefined)", "Potency": "inactive"}
{"smiles": "CC(C)NC(=S)N(CCc1ccncc1)C(C)C", "Potency": "inconclusive [rising, single point]"}
{"smiles": "Oc1c(C(Nc2ccccn2)c2ccccn2)ccc2cccnc12", "note": "(centres undefined)", "Potency": "inconclusive [cytotoxic, partial curve]"}
{"smiles": "COc1ccc(CC2(CO)CCN(Cc3ccc(OC(F)(F)F)cc3)CC2)cc1", "Potency": "inconclusive [cytotoxic, single point]"}
{"smiles": "CCN(c1ccccc1)S(=O)(=O)c1ccc(Cl)c(NC(=O)CN2CCCCCC2)c1", "Potency": "inconclusive [cytotoxic, single point]"}
{"smiles": "Cc1ccc(C2CC2c2n[nH]c(=S)n2-c2ccc(Cl)cc2)cc1", "note": "(centres undefined)", "Potency": "inactive"}
{"smiles": "Clc1cccc(/C(Cc2nc3ccccc3[nH]2)=N\\Nc2ccccc2)c1", "Potency": "inconclusive [cytotoxic, single point]"}
{"smiles": "CCNc1nc(NC(C)C)nc(SCCOc2ccc(C)cc2)n1", "Potency": "inconclusive [cytotoxic, single point]"}
{"smiles": "CCc1cc2c(=O)c(-c3cscn3)coc2cc1O", "Potency": "inconclusive [cytotoxic, partial curve]"}
{"smiles": "O=c1c(O)c(-c2cccs2)oc2ccccc12", "Potency": "inconclusive [cytotoxic, single point]"}
{"smiles": "O=C(CCl)Nc1c[nH]c(=O)[nH]c1=O", "Potency": "inconclusive [cytotoxic, single point]"}
{"smiles": "COc1ccc(-c2nc3ccc(C)cn3c2Cc2cccc(Cl)c2)cc1OC", "Potency": "inconclusive [cytotoxic, single point]"}
{"smiles": "CCOCCCn1c(=S)[nH]c2cc(C(=O)NCCc3ccc(OC)c(OC)c3)ccc2c1=O", "Potency": "inconclusive [cytotoxic, single point]"}
{"smiles": "CCCCc1ccc(NC(=O)N2CCN(c3cc(C)nc4ccccc34)CC2)c(C)c1", "Potency": "inconclusive [cytotoxic, partial curve]"}
{"smiles": "COc1ccc(CCN(Cc2cc3ccc(C)cc3n3nnnc23)C(C)=O)cc1OC", "activity, negative = less viability": "inconclusive: -25.5% [cytotoxic]"}
{"smiles": "Oc1ccccc1CN1CCCC(N2CCc3ccccc3C2)C1", "note": "(centres undefined)", "Potency": "inactive"}
{"smiles": "Cc1cccc(NC(=O)CSc2nc3ccccc3nc2N2CC(C)OC(C)C2)c1", "note": "(centres undefined)", "Potency": "inactive"}
{"smiles": "O=C(N/N=C/c1ccc([N+](=O)[O-])o1)c1ccccc1-n1cccc1", "Potency": "inconclusive [cytotoxic, single point]"}
{"smiles": "COc1cccc(/C=N/NC(=O)c2[nH]nc3c2CCc2ccccc2-3)c1O", "Potency": "active: 2.59 µM"}
{"smiles": "O=c1c2cc3c(=O)n(-c4ccccc4O)c(=O)c3cc2c(=O)n1-c1ccccc1O", "Potency": "inconclusive [cytotoxic, partial curve]"}
{"smiles": "CCOc1cccc(-c2nc(C(N)=O)c3[nH]c(=O)n(-c4cccc(Cl)c4)c3n2)c1O", "Potency": "inconclusive [cytotoxic, single point]"}
